Experimental data published in US20250144249A1, “METHODS USING SURFACE-EXPRESSIBLE ACTIVATABLE EPITOPES TO LOCALIZE AND/OR TREAT DISEASED CELLS” (EARLI Inc., priority 2022, published 2025).

How the values were obtained:
Format in all cases: cell-based, human
H1299 cells [1] = assay: number of copies of anti-DLL3 antibody bound to DLL3 on the cell surface (quantification bead standard curve)
Method: Next, a physical number of copies of anti-DLL3 antibody bound to DLL3 expressed on the cell surface was assessed. H1299 cells were seeded into 96 well plate. 24 hours after seeding, H1299 cells were transfected with nanoplasmid vectors comprising NP116 (wild-type control), NP247 (with a single DLL3 epitope in the CD8 scaffold), or NP298 (with two DLL3 epitopes in the CD8 scaffold) via lipofectamine according to the manufacture's protocols. H1299 cells were then stained with fluorescently labeled anti-DLL3 antibodies for FACS analysis. Cells and commercially available beads for epitope quantification were then stained with an anti-DLL3 secondary antibody conjugated to Alexa Fluor® 647 (AF647). H1299 cells were subsequently analyzed on a BD Biosciences FACSAria IIu (FIGS. 10A-10C). The number of epitopes were calculated by comparing the cell's expression to the quantification bead standard curve (FIGS. 10B-10C).
Each of NP247 and NP298 constructs and wild-type DLL3 construct (NP116) was separately introduced to H1299 cells by transfection to analyze the expression of engineered DLL3. […] H1299 cells stably expressing wild-type or engineered DLL3 and commercially available beads for epitope quantification were then stained with an anti-DLL3 secondary antibody conjugated to Alexa Fluor® 647 (AF647). H1299 cells were subsequently analyzed on a BD Biosciences FACSAria IIu. […]

H1299 cells [2] = assay: FACS detection of second-set engineered DLL3 on the surface of transfected H1299 cells (Example 5); conditions: H1299 cells transfected with construct; compared to NP247 and wild-type control NP116; FIG. 9B
H1299 cells [3] = assay: cell killing assay, CellTiter Glo 2.0 (Example 7); conditions: treated with anti-DLL3-PBD, 72 hours, compared to NP116, FIG. 13B
Method: Next, H1299 cells stably expressing WT or engineered DLL3 were seeded 5,000 cells/well in 96 well plates. 24 hours after seeding, H1299 cells were treated with a titration of either an unconjugated anti-DLL3 antibody or an anti-DLL3 antibody conjugated to a PBD toxin (anti-DLL3-PBD). 72 hours after antibody treatment, cell viability was assessed using the CellTiter Glo 2.0 assay kit and analyzed on a Promega GloMax Navigator.

B1: NP298: engineered DLL3 construct, residues 179-254 of DLL3 and a second DLL3 epitope in CD8 scaffold; SEQ ID NO: 41, 48 (protein)
chain: MALPVTALLLPLALLLHAARPEPPAVGTACTRLCRPRSAPSRCGPGLRPCAPLEDECEAPLVCRAGCSPEHGFCEQPGECRCLEGWTGPLCTVPVSTGGEPPAVGTACTRLCRPRSAPSRCGPGLRPCAPLEDECEAPLVCRAGCSPEHGFCEQPGECRCLEGWTGPLCTVPVSTGGTTTPAPRPPTPAPTIASQPLSLRPEACRPAAGGAVHTRGLDFACDFWVLVVVGGVLACYSLLVTVAFIIFWVHMGGGSGGGSAYPYDVPDYAAYPYDVPDYA
- increase in copy number of anti-DLL3 antibodies compared to cells expressing NP116 (H1299 cells [1]; Example 5, H1299 cells transfected with nanoplasmid vectors, FIG. 10C): 32 fold
- increase in copy number of anti-DLL3 antibodies compared to cells expressing NP116 (H1299 cells [1]; Example 7, FIG. 13A): 37 fold
- detection level of DLL3 expressed on the cell surface (H1299 cells [2]): increased detection level of DLL3 expressed on the cell surface; also recorded: antibody binding capacity can be increased
- loss of viability / susceptibility to cell death of cells expressing the construct (H1299 cells [3]): may be more susceptible to cell death; also recorded: substantial loss of viability

Entries after “also recorded” stand apart in the source; their conditions may differ.
